Among all 52,000 compounds or so, about 4,300 (8.3%) were called active. Cut-off read from the data, not from the text of the source: active = survival mostly below about 52% (no sharp cut-off); inactive = mostly above about 56%. This is one part of the list.

In the test the test system is DeltatarO mutant. The experiment in a line: growth inhibition of S. aureus wild type versus tarO mutant, primary screen, teichoic acid synthesis inhibitors, RN4220, OD600 (AID 463173). The settings on record: OD600, 18 h, active compounds read low, screened at 18.75 µg/mL (by protocol).
As to `CCC(CC)C(=O)Nc1nnc(S(=O)(=O)N2CCCCCC2)s1`, the survival was inactive: 85%.

With `COc1ccc(CCNC(=O)c2ccc3c(c2)CCN3S(C)(=O)=O)cc1OC`, the survival is inactive: 89%.

Take `CCCOc1ccc(Cc2c(O)nc(N)[nH]c2=O)cc1C`: the survival is inactive: 76%.

Consider `COc1ccc2c(CNCCc3ccc(SC)cc3)c(C(=O)O)n(Cc3ccc(F)cc3)c2c1`, for which the survival was inactive: 95%.

Regarding `COc1ccc2c(c1)c(=O)c(C(=O)c1ccccc1)cn2CC(=O)Nc1ccc2c(c1)OCO2`, the survival is inactive: 99%.

On to `COc1ccc(Cn2cc(S(=O)(=O)c3ccc(C)cc3)c(=O)c3cc(F)ccc32)cc1`, for which the survival is inactive: 70%.

On to `Cc1nc(-c2ccc(S(=O)(=O)Nc3cc(Cl)ccc3C)cc2)co1`, for which the survival was inactive: 90%.

With `COc1ccc(-c2nc3scc(CCNS(=O)(=O)c4ccc(Oc5ccccc5)cc4)n3n2)cc1OC`, the survival was inactive: 120%.

As to `Cc1ccsc1CCN1C(=O)N(c2ccccc2)C(=O)C1CC(=O)Nc1ccc(Cl)cc1` (stereo unspecified), the survival was inactive: 66%.

Regarding `O=C(CNC(=O)c1ccccc1)OCc1cc(=O)n2nc(C3CCCCC3)sc2n1`, the survival is inactive: 90%.

For the compound `Cc1ccc2sc(N(Cc3cccnc3)C(=O)CCS(=O)(=O)c3ccccc3)nc2c1C`, the survival was active: 6%.

Take `COc1ccc(N2CCN(C(=O)CSc3nc(-c4ccc(C(C)C)cc4)no3)CC2)cc1`: the survival is inactive: 99%.

For `CC(=O)c1cccc(NC(=O)Nc2sc3nc4n(c(=O)c3c2C)CCC(C)CC4)c1` (stereo unspecified), the survival was inactive: 92%.

For `O=C(NN=c1c(=O)c2ccccc2c1=O)c1ccncc1`, the survival was inactive: 77%.

Consider `CCN(CC)C(=O)c1sc2c(c1C)c(=O)n(Cc1ccccc1)c(=O)n2Cc1ccccc1C`, for which the survival was inactive: 75%.

Regarding `Cc1cn2c(=O)cc(COC(=O)c3ccc(NC(=O)c4ccc(F)cc4)cc3)nc2s1`, the survival is inactive: 96%.

For the compound `CCOC(=O)c1ccc(NC(=O)c2cnn3c(=O)c4c(n(CC)c23)CCN(Cc2ccc(OC)cc2)C4)cc1`, the survival is inactive: 96%.

For `COC(=O)c1ccc(Nc2ncnc3c2cnn3C)cc1`, the survival was inactive: 81%.

As for `CC1CCN(S(=O)(=O)N2CCC(C(=O)NCc3ccccc3Cl)CC2)CC1`, the survival is inactive: 81%.

For `COc1ccc(CNC(=O)Cc2c(C)c3cc4c(C)coc4cc3oc2=O)cc1OC`, the survival was inactive: 78%.

For `COc1ccc(C2c3[nH]c4ccccc4c3CCN2C(=O)CCC2CCCC2)cc1` (stereo unspecified), the survival was inactive: 95%.

`CCN(CC)c1ccc(NC(=O)c2cc(C)nc3c2c(C)nn3-c2ccc(C)cc2)c(C)c1`: the survival is inactive: 101%.

`CC(Sc1nccn1C)C(=O)Nc1ccccc1C#N` (stereo unspecified): the survival was inactive: 85%.

As to `CCOc1ccc(C(=O)Nc2c(C(=O)Nc3ccccc3OC)oc3ccccc23)cc1OCC`, the survival is inactive: 65%.

Consider `Cc1cc(C)cc(OCCSc2nc3ccc(NC(=O)c4cccs4)cc3s2)c1`, for which the survival is inactive: 58%.

Take `Cc1c(-c2ccccc2)c(=O)oc2ccc(OC(=O)N3CCOCC3)cc12`: the survival is inactive: 93%.

Regarding `O=C(Cn1cc(C(=O)C2CCCCC2)c2ccccc21)Nc1ccccc1Cl`, the survival is inactive: 76%.

Consider `CC(C)c1nc(NCCO)c2nnn(Cc3ccccc3)c2n1`, for which the survival was inactive: 85%.

With `COC(=O)C1=CNC=C(C(=O)OC)C1c1ccc(Cl)cc1`, the survival is inactive: 88%.

In the case of `Clc1ccc(CN2CCN(c3ncnc4sc5c(c34)CCCC5)CC2)cc1Cl`, the survival is inactive: 107%.

On to `COc1ccc(CNC(=O)Cc2c(C(=O)O)c(C)cn2C)cc1`, for which the survival was inactive: 94%.

As for `COc1ccc(-c2nc3scc(CCNS(=O)(=O)c4ccc5c(c4)OCCO5)n3n2)cc1OC`, the survival is inactive: 86%.

For the compound `Cc1cc(=O)c2cc(Br)ccc2[nH]1`, the survival was inactive: 71%.

In the case of `Cc1ccc(-c2cn3c(n2)sc2cc(C(=O)NCCCN4CCCCCC4)ccc23)cc1`, the survival was active: -4%.

On to `CC(CCc1ccccc1)NC(=O)Cn1c(=O)nc(-c2ccccc2)c2cc(Cl)ccc21` (stereo unspecified), for which the survival is inactive: 80%.

Take `CCc1ccc2oc(C(=O)N(Cc3ccc(N(C)C)cc3)Cc3ccco3)c(C)c2c1`: the survival is inactive: 71%.

With `CCCN(CCC)C(=O)c1cc2c(=O)n3cccc(C)c3nc2s1`, the survival was inactive: 56%.

With `CC1=C(c2ccc(C)c(C)c2)S(=O)(=O)N=C1N1CCC(C(=O)NC(C)c2ccccc2)CC1` (stereo unspecified), the survival is inactive: 84%.

Regarding `O=C(O)c1cc2cc3ccccc3nc2s1`, the survival is inactive: 98%.

Regarding `O=C1c2ccccc2-c2onc3c(N4CCN(C5CCCCC5)CC4)cc(NCCO)c1c23`, the survival is inactive: 59%.

For the compound `COCCNc1c(-c2ccc(OC)c(OC)c2)nc2ccc(Cl)cn12`, the survival was inactive: 79%.

`COCC(=O)N1CCC(n2nnc3cc(F)ccc32)CC1`: the survival was inactive: 53%.

As for `COc1ccc2c(C)c(CC(=O)NCCc3ccc(Cl)cc3)c(=O)oc2c1C`, the survival was inactive: 111%.

Consider `CCOc1ccc(NC(=O)CSC2=Nc3ccccc3C3=NC(CC(=O)NCc4cccs4)C(=O)N23)cc1` (stereo unspecified), for which the survival was inactive: 76%.

Regarding `COc1cc(-c2cc(OC)c3c(C)oc(C)c3c(=O)c2)ccc1OC(=O)c1ccc(C)cc1`, the survival is inactive: 88%.

As for `Cc1nc(N(C)C2CCCCC2)c2nnn(Cc3ccc(F)cc3)c2n1`, the survival is inactive: 96%.

Regarding `O=C(CSc1n[nH]c(-c2ccccc2Cl)n1)NCCCc1ccccc1`, the survival is inactive: 76%.

Regarding `CCOC(=O)c1cccc(NC(=O)c2ncoc2-c2ccco2)c1`, the survival was inactive: 102%.

Take `COc1cc(NC(=O)C(F)(F)F)c(OC)cc1Br`: the survival was inactive: 84%.

Regarding `O=C(O)c1cccc(N(CCO)CCO)c1`, the survival was inactive: 95%.

Regarding `COC(=O)c1ccccc1NC(=O)Cn1cnc2sc(C)c(S(=O)(=O)N3CCC(C)CC3)c2c1=O`, the survival was inactive: 59%.

In the case of `Cc1nc2ccccn2c(=O)c1NC(=O)c1cccc(F)c1`, the survival was inactive: 71%.

In the case of `CCOc1ccc(C2C(=O)N(C3CCCCCC3)CC(=O)N2Cc2ccccc2)cc1OC` (stereo unspecified), the survival was inactive: 72%.

In the case of `COc1ccc(NC(=O)/C=C\C(=O)N(c2ccc(C(C)C)cc2)C(C(=O)NCc2ccco2)c2ccc(C)cc2)cc1` (stereo unspecified), the survival is inactive: 74%.

For the compound `Cc1cccc(C(=O)N2CCc3cc(CNC(=O)c4cc5ccccc5[nH]4)ccc32)c1`, the survival was inactive: 81%.

On to `CCn1nc(C)c(CCN(C)C(=O)Nc2cccc(Cl)c2C)c1C`, for which the survival was inactive: 88%.

Turning to `O=S(=O)(c1ccccc1)c1nc(-c2ccccc2Cl)oc1N1CCCCCC1`, the survival was active: 27%.

`Cc1cc(C)c(S(=O)(=O)NCCS(=O)(=O)N2CCN(c3ccccc3)CC2)c(C)c1`: the survival was inactive: 94%.

Consider `Cc1ccccc1N(C)S(=O)(=O)c1nnc(NC(=O)c2ccco2)s1`, for which the survival was inactive: 94%.

Take `CCOC(=O)c1cc(-c2ccc(OC)cc2)n(CCC(=O)NCCc2ccccc2)c1C`: the survival was inactive: 98%.

`COc1cccc(C(=O)NCCc2csc3nc(-c4ccccc4F)nn23)c1OC`: the survival was inactive: 83%.

Take `COc1ccc(CCNC(=O)c2ccc3c(c2)sc2nc(-c4ccccc4)cn23)cc1OC`: the survival is active: 47%.

`Cc1ccc(NC(=O)C2(C)Cc3ccccc3C(=O)O2)c(C)c1` (stereo unspecified): the survival is inactive: 105%.

`COc1cccc(C2NC(C(=O)O)Cc3c2[nH]c2ccccc32)c1` (stereo unspecified): the survival is inactive: 95%.

For `N#C/C(=C\c1ccc(-c2ccccc2)o1)C(=O)Nc1ccccc1`, the survival was inactive: 90%.

In the case of `Cc1cc(OCC(=O)NCCc2nc3ccccc3[nH]2)cc(C)c1Cl`, the survival was active: 44%.

Regarding `Cc1ccc(CNC(=O)Cn2c(SCC(=O)Nc3ccc(F)cc3)nc3ccccc32)cc1`, the survival is inactive: 126%.

As for `O=C(CSc1nc(=O)n(Cc2ccco2)c2c1CCC2)NCc1ccccc1`, the survival is inactive: 89%.

Consider `Clc1ccccc1OCCSc1nnc(-c2cccs2)o1`, for which the survival is inactive: 43%.

On to `CCc1ccc2oc(-c3ccc(C)c(NC(=O)/C=C/c4ccco4)c3)nc2c1`, for which the survival is inactive: 83%.

With `Cc1ccc2nc(/C(C#N)=C/c3ccccc3F)[nH]c2c1`, the survival was active: 31%.

With `Cc1cccc(OCCSc2nnc(-c3cccs3)o2)c1`, the survival is inactive: 58%.

For `Cc1sc2ncn(CC(=O)N3CCN(c4ccccc4F)CC3)c(=O)c2c1S(=O)(=O)N1CCC(C)CC1`, the survival is inactive: 74%.

On to `N#Cc1c(C(F)(F)F)cc(=O)n2c1[nH]c1ccccc12`, for which the survival is active: 37%.

Consider `COc1ccc(N2CCN(C(=O)CSc3nnc4c5ccccc5n(CC(=O)O)c4n3)CC2)cc1`, for which the survival was inactive: 101%.

Consider `CCOc1ccc(CCNC(=O)C2CCCN(S(=O)(=O)N(C)c3ccc(F)cc3)C2)cc1` (stereo unspecified), for which the survival was inactive: 77%.

Turning to `CCS(=O)(=O)N1CCc2cc(C(=O)NCc3ccccc3OC)ccc21`, the survival was active: 40%.

`COc1ccc(C(=O)NCC(C)C)c(OC)c1`: the survival was inactive: 103%.

For the compound `Cc1ccccc1-c1nc2scc(CCNC(=O)c3ccco3)n2n1`, the survival is inactive: 71%.

For `CCn1cc(CNC(=O)c2cc(-c3ccc(C)cc3)nc3ccc(Br)cc23)c(C)n1`, the survival was active: 40%.

For `COc1cccc(NC(=O)C2CCC(CNS(=O)(=O)c3ccc4c(c3)CCCC(=O)N4)CC2)c1` (stereo unspecified), the survival is inactive: 79%.

Regarding `C1CCC(N2CCN(C3CCCC3)CC2)C1`, the survival was inactive: 76%.

For the compound `COc1cccc(NC(=O)C2CCN(c3ccc(Sc4ccc(C)cc4)nn3)CC2)c1`, the survival is inactive: 49%.

For the compound `Cc1nnc(SCC(=O)N(C2CCCCC2)C2CCCCC2)[nH]c1=O`, the survival was inactive: 114%.

Take `O=C(NCc1ccccc1)C(=O)Nc1c2c(nn1-c1ccc(F)cc1)CSC2`: the survival was inactive: 84%.

In the case of `CCOc1ccc(CCNC(=O)c2cc3c(-c4ccccc4F)nn(C)c3s2)cc1`, the survival was inactive: 64%.

For `CCc1ccc(CNC(=O)CCCn2ccc3cc(S(=O)(=O)N4CCCC4)ccc32)cc1`, the survival was inactive: 91%.

For `CCC(Cn1nnc2ccccc2c1=O)NC(=O)Nc1ccccc1OC` (stereo unspecified), the survival was inactive: 79%.

In the case of `Cc1ccc(S(=O)(=O)c2nc(-c3ccc(F)cc3)oc2SCC(=O)NC2CCCCC2)cc1`, the survival is inactive: 149%.

As to `COc1ccc(Cl)cc1-n1cc(-c2ccccc2)nc1SCC(=O)Nc1ccc(C)cc1`, the survival was inactive: 86%.

For the compound `O=C(NC1CCCC1)c1ccc2c(=O)n(Cc3ccccc3)c(SCc3ccccc3F)nc2c1`, the survival is active: 0%.

The values are drawn from PubChem BioAssay AID463173 (ICCB-Longwood Screening Facility, Harvard Medical School, 2010).
